Experimental data from paper PMC12016936.
Results are given in words; binding and its absence hold for the method and conditions named. Binding seen in cells or lysates may run through a third protein. Some binding calls cover weakened binding; strength is not graded here.

Protein sequences, listed by entry. Tags and fused reporters are not part of them. Lines headed by an entry give the natural chain unless they say otherwise; changes in a name come on top. Chains listed by the source or under a name are the forms on record and can include a tag or linker.
UniProt O43791: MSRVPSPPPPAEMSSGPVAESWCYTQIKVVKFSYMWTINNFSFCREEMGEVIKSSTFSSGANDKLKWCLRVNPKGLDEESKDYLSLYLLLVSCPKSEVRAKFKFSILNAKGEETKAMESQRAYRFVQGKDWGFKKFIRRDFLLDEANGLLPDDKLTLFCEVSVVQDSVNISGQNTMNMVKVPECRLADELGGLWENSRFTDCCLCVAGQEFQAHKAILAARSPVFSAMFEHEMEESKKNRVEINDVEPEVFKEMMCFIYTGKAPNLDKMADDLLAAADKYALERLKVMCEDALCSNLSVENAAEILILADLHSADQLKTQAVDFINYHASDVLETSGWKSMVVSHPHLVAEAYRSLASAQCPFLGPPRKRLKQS
FLAG-SPOP-3KR (O43791, form named): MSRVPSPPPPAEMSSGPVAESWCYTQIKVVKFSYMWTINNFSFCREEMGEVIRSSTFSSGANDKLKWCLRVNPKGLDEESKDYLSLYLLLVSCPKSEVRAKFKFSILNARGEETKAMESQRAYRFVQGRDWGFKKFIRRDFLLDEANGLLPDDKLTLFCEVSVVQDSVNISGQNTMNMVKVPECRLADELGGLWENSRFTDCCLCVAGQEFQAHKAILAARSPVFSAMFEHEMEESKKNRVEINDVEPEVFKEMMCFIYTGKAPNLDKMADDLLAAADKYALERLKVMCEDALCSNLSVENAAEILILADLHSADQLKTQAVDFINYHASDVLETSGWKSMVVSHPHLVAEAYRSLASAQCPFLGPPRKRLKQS
UniProt O75925: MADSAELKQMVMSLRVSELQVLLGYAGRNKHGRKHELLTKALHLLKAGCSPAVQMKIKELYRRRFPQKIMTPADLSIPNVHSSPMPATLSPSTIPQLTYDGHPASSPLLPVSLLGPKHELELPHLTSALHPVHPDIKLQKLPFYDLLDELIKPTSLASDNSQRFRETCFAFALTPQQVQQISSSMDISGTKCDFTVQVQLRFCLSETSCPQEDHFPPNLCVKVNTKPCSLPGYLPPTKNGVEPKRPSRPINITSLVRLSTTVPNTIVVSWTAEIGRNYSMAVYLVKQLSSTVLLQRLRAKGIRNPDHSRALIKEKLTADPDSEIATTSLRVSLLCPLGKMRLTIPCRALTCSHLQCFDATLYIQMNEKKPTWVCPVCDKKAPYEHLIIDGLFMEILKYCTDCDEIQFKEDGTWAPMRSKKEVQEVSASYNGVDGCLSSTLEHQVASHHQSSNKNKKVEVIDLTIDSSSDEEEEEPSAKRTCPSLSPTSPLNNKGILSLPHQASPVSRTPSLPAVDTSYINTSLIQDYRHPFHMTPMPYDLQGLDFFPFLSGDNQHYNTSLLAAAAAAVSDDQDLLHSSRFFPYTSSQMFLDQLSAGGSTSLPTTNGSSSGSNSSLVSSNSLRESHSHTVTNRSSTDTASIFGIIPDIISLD

Legend:
GST-SPOP = GST-SPOP (UniProt O43791); experiment: pull-down; GST-SPOP immobilised on glutathione-Sepharose beads, incubated 2 h with lysates of Myc-PIAS1-transfected HEK-293T cells; pull-down buffer 20 mM Tris-HCl pH 7.5, 150 mM NaCl, 0.1% NP-40, 1 mM DTT, 10% glycerol, 1 mM EDTA, 2.5 mM MgCl2; cells with or without olaparib (10 μM) and silmitasertib; lysates with or without λ protein phosphatase; only the target purified
SPOP-L90V = SPOP-L90V (UniProt O43791); experiment: co-IP; in vivo interaction assay of SPOP-WT or PCa-associated SPOP mutants with PIAS1 under olaparib treatment; mutants also co-expressed with SPOP-WT
SPOP-F133L = SPOP-F133L (UniProt O43791); experiment: as above
SPOP-F125V = SPOP-F125V (UniProt O43791); experiment: as above
SPOP-K101I = SPOP-K101I (UniProt O43791); experiment: as above
FLAG-SPOP-WT [1] = biological target: FLAG-SPOP-WT (UniProt O43791); experiment: as above
SPOP-K129E = SPOP-K129E (UniProt O43791); experiment: as above
FLAG-SPOP-WT [2] = biological target: FLAG-SPOP-WT (UniProt O43791); experiment: co-IP; in vivo interaction assay, exogenous PIAS1 and SPOP; HEK-293T cells (legend; the text says PC-3); cells with or without olaparib (10 μM)
FLAG-SPOP-K53R = FLAG-SPOP-K53R (UniProt O43791); experiment: co-IP; in vivo SUMOylation assay: HEK-293T cells transfected with FLAG-SPOP-WT or -MUT and Myc-PIAS1, olaparib (10 μM), 20 μM MG132 for 8 h; anti-FLAG magnetic beads overnight at 4°C; blot with anti-FLAG, anti-Myc, anti-SUMO1
FLAG-SPOP-K110R = FLAG-SPOP-K110R (UniProt O43791); experiment: as above
FLAG-SPOP-3KR = FLAG-SPOP-3KR (UniProt O43791); experiment: as above
FLAG-SPOP-WT [3] = biological target: FLAG-SPOP-WT (UniProt O43791); experiment: as above
FLAG-SPOP-K129R = FLAG-SPOP-K129R (UniProt O43791); experiment: as above
[4] = biological target: SPOP (endogenous) (human (endogenous in PC-3 or HEK-293T)) (UniProt O43791); experiment: co-IP; in vivo interaction assay, endogenous PIAS1 and SPOP; HEK-293T cells (legend; the text says PC-3); cells with or without olaparib (10 μM)

binding (GST-SPOP) | binding (SPOP-L90V) | binding (SPOP-F133L) | binding (SPOP-F125V) | binding (SPOP-K101I) | binding (FLAG-SPOP-WT [1]) | binding (SPOP-K129E) | binding (FLAG-SPOP-WT [2]) | binding (FLAG-SPOP-K53R) | binding (FLAG-SPOP-K110R) | binding (FLAG-SPOP-3KR) | binding (FLAG-SPOP-WT [3]) | binding (FLAG-SPOP-K129R) | binding [4] | Substance
binds | – | – | – | – | – | – | – | – | – | – | – | – | – | Myc-PIAS1-S468A (from UniProt O75925 1-651)
binds | no binding | no binding | no binding | no binding | binds | no binding | binds | binds | binds | binds | binds | binds | – | Myc-PIAS1-WT (from UniProt O75925 1-651)
– | – | – | – | – | – | – | – | – | – | – | – | – | binds | PIAS1 (endogenous) (from UniProt O75925 1-651)
